Here are results for 29 compounds from the antibiotic and cytotoxicity screens of Wong et al. (2023).

The list shows a part of the results.

One test has as its system HSkMC. Briefly: cytotoxicity call (relative viability < 0.9). The settings on record: 10 µM.
The test system of a further test is HepG2. Briefly: cytotoxicity call (relative viability < 0.9). The following applies: 10 µM.
Another test has as its system S. aureus RN4220. Briefly: growth inhibition call (relative growth <= 0.2). The settings on record: 50 µM.

Consider `C[C@H](CO)N1C[C@H](C)[C@@H](CN(C)Cc2ccncc2)Oc2ccc(NC(=O)c3ccncc3)cc2CC1=O`, for which the cytotoxicity call in the test with HSkMC and in the test with HepG2 was “inactive” throughout. Moreover, in the test with S. aureus RN4220, the growth inhibition call is “inactive”.
With `Oc1cc(O)c2cc(O)c(-c3ccc(O)c(O)c3)[o+]c2c1.[Cl-]`, the cytotoxicity call with HSkMC and with HepG2 was “inactive” each time. Moreover, the growth inhibition call in the test with S. aureus RN4220 is “inactive”.
For the compound `CNc1ccccc1C(N)=O`, the cytotoxicity call with HSkMC and with HepG2 was “inactive” each time. For the same compound, the growth inhibition call with S. aureus RN4220 is “inactive”.
As to `CC(C)NC(=O)N(C)C[C@@H]1OCc2cn(nn2)CCCC(=O)N([C@H](C)CO)C[C@@H]1C`, the cytotoxicity call in the test on HSkMC and in the test with HepG2 was “inactive” throughout. Besides, in the test with S. aureus RN4220, the growth inhibition call is “inactive”.
Consider `CO[C@@H](CN(C)C(=O)C1CCOCC1)[C@@H](C)CN(C(=O)Nc1ccc(C(F)(F)F)cc1)[C@H](C)CO`, for which the cytotoxicity call in the test on HSkMC and in the test with HepG2 was “inactive” each time. Further, in the test with S. aureus RN4220, the growth inhibition call is “active”.
Turning to `CC(C=CC1=C(C)CCCC1(C)C)=CC=CC(C)=CC(=O)O`, the cytotoxicity call with HSkMC and with HepG2 was “inactive” each time. For the same compound, in the test on S. aureus RN4220, the growth inhibition call is “inactive”.
Take `COCCNC(=O)C[C@@H]1CC[C@@H]2[C@H](COC[C@H](O)CN2C(=O)Nc2ccccc2OC)O1`: the cytotoxicity call with HSkMC and with HepG2 was “inactive” in each case. For the same compound, the growth inhibition call in the test with S. aureus RN4220 was “inactive”.
Consider `C[C@H]1CN([C@@H](C)CO)S(=O)(=O)c2ccc(C#Cc3ccc(F)cc3)cc2O[C@@H]1CN(C)S(C)(=O)=O`, for which, in the test on HSkMC, the cytotoxicity call was “inactive”. Moreover, in the test on HepG2, the cytotoxicity call was “active”. Moreover, in the test with S. aureus RN4220, the growth inhibition call is “inactive”.
For `O=C(C1=C[C@H](c2ccc3c(c2)Cc2ccccc2-3)C[C@H](OCc2ccc(CO)cc2)O1)N1CCN(Cc2ccc3c(c2)OCO3)CC1`, the cytotoxicity call with HSkMC and with HepG2 was “inactive” each time. Besides, the growth inhibition call with S. aureus RN4220 is “inactive”.
In the case of `C[C@H]1CN([C@@H](C)CO)C(=O)Cc2cc(NC(=O)Nc3cccc4ccccc34)ccc2O[C@@H]1CN(C)C(=O)Nc1ccccc1`, the cytotoxicity call in the test on HSkMC and in the test with HepG2 was “inactive” in each case. For the same compound, the growth inhibition call with S. aureus RN4220 is “inactive”.
`O=C(CN1CCOCC1)N[C@H]1CC[C@@H](CCn2cc(C3CCCC3)nn2)O[C@H]1CO`: the cytotoxicity call in the test on HSkMC and in the test with HepG2 was “inactive” throughout. In addition, the growth inhibition call in the test on S. aureus RN4220 is “inactive”.
For `C[C@@H]1CCCCO[C@@H](CN(C)C(=O)CCCN(C)C)[C@@H](C)CN([C@H](C)CO)C(=O)c2cc(NS(=O)(=O)c3cn(C)cn3)ccc2O1`, the cytotoxicity call with HSkMC and in the test on HepG2 was “inactive” each time. Further, the growth inhibition call in the test on S. aureus RN4220 was “inactive”.
Turning to `O=C(C[C@@H]1C=C[C@H](NC(=O)C2CC2)[C@@H](CO)O1)NCCCN1CCOCC1`, the cytotoxicity call in the test on HSkMC and in the test with HepG2 was “inactive” in each case. Moreover, the growth inhibition call in the test with S. aureus RN4220 is “inactive”.
On to `C=CC(C)(C)c1[nH]c2ccccc2c1C1=C(O)C(=O)C(c2c[nH]c3c(CC=C(C)C)cccc23)=C(O)C1=O`, for which the cytotoxicity call in the test on HSkMC was “active”. The cytotoxicity call in the test on HepG2 is “inactive”. The growth inhibition call in the test on S. aureus RN4220 is “inactive”.
Regarding `Cn1cnc(CCNC(=O)C[C@@H]2CC[C@@H]3[C@H](COC[C@@H](O)CN3C(=O)Nc3ccc(Cl)cc3)O2)c1`, the cytotoxicity call in the test with HSkMC and with HepG2 was “inactive” each time. Besides, the growth inhibition call in the test on S. aureus RN4220 was “inactive”.
For `C[C@H](CO)N1C[C@H](C)[C@H](CN(C)C(=O)Nc2ccc(F)cc2)OCCCC[C@H](C)Oc2ccc(NC(=O)Nc3ccc4c(c3)OCO4)cc2C1=O`, the cytotoxicity call with HSkMC and in the test on HepG2 was “inactive” throughout. Also, the growth inhibition call in the test on S. aureus RN4220 was “inactive”.
As to `CNC[C@@H](O)c1cccc(O)c1`, the cytotoxicity call in the test with HSkMC and in the test on HepG2 was “inactive” in each case. Moreover, the growth inhibition call in the test with S. aureus RN4220 is “inactive”.
On to `Cc1noc(C)c1NC(=O)N(C)C[C@@H]1Oc2c(NC(=O)c3ccncc3)cccc2C(=O)N([C@H](C)CO)C[C@@H]1C`, for which the cytotoxicity call in the test with HSkMC and with HepG2 was “inactive” in each case. Besides, the growth inhibition call with S. aureus RN4220 is “inactive”.
On to `CCOc1ccc(Cc2cc(C3OC(CO)C(O)C(O)C3O)ccc2Cl)cc1` (configuration not stated), for which the cytotoxicity call with HSkMC and in the test on HepG2 was “inactive” throughout. Also, the growth inhibition call in the test on S. aureus RN4220 was “inactive”.
Regarding `C[C@H]1CN([C@@H](C)CO)C(=O)c2cc(NC(=O)CCCN(C)C)ccc2O[C@@H]1CN(C)S(=O)(=O)c1ccc(F)cc1`, the cytotoxicity call in the test on HSkMC and in the test with HepG2 was “inactive” throughout. Also, the growth inhibition call in the test on S. aureus RN4220 is “inactive”.
On to `CN(C)C(=O)COC[C@H]1CN(S(C)(=O)=O)Cc2nnn(C)c21`, for which the cytotoxicity call in the test on HSkMC and in the test on HepG2 was “inactive” each time. For the same compound, the growth inhibition call in the test with S. aureus RN4220 was “inactive”.
For the compound `CC(C)(O)CCC(O)C(C)(O)C1CCC2(O)C3=CC(=O)C4CC(O)C(O)CC4(C)C3CCC12C` (configuration not stated), the cytotoxicity call with HSkMC and in the test on HepG2 was “inactive” in each case. In addition, the growth inhibition call in the test with S. aureus RN4220 was “inactive”.
As for `C[C@H](CO)N1C[C@H](C)[C@@H](CN(C)C(=O)Nc2ccccc2)Oc2c(NS(C)(=O)=O)cccc2C1=O`, the cytotoxicity call in the test on HSkMC and with HepG2 was “inactive” throughout. In addition, the growth inhibition call in the test on S. aureus RN4220 is “inactive”.
With `CCCNC(=O)N[C@@H]1C=C[C@@H](CC(=O)N2CCN(C)CC2)O[C@@H]1CO`, the cytotoxicity call with HSkMC and in the test on HepG2 was “inactive” each time. In addition, the growth inhibition call with S. aureus RN4220 is “inactive”.
`NC(=O)NCc1ccc2c(c1)OCO2`: the cytotoxicity call in the test on HSkMC and in the test with HepG2 was “inactive” each time. The growth inhibition call in the test on S. aureus RN4220 was “inactive”.
Take `C[C@H]1CCCCO[C@H](CN(C)C(=O)Nc2cccc3ccccc23)[C@@H](C)CN([C@@H](C)CO)C(=O)c2cc(NS(=O)(=O)c3ccccc3)ccc2O1`: the cytotoxicity call in the test with HSkMC and in the test with HepG2 was “inactive” throughout. Besides, the growth inhibition call in the test with S. aureus RN4220 is “inactive”.
On to `C[N+]1(C)CCC(OC(=O)C(O)(c2ccccc2)C2CCCC2)C1.[Br-]` (configuration not stated), for which the cytotoxicity call with HSkMC and with HepG2 was “inactive” in each case. For the same compound, the growth inhibition call with S. aureus RN4220 is “inactive”.
On to `COc1ccc(NC(=O)Nc2ccc3c(c2)C(=O)N([C@@H](C)CO)C[C@@H](C)[C@@H](CN(C)C(=O)Nc2ccccc2)OCCCC[C@@H](C)O3)cc1`, for which the cytotoxicity call in the test with HSkMC and in the test on HepG2 was “inactive” in each case. Besides, the growth inhibition call with S. aureus RN4220 was “inactive”.
As to `C[C@@H]1CN([C@H](C)CO)C(=O)c2cc(NC(=O)Nc3ccc(C(F)(F)F)cc3)ccc2O[C@@H](C)CCCCO[C@H]1CN(C)S(=O)(=O)c1cn(C)cn1`, the cytotoxicity call in the test on HSkMC (human skeletal muscle cells) and in the test with HepG2 was “inactive” in each case. The growth inhibition call with S. aureus RN4220 is “inactive”.
